Test results: paper PMC5855594 (2018)

Tests used:
BSA neo-glycoprotein 9 [1] = target: T1, BSA neo-glycoprotein 9 (Bos taurus, UniProt P02769); assay: ELISA
BSA neo-glycoprotein 9 [2] = target: T1, BSA neo-glycoprotein 9; assay: competitive ELISA
BSA neo-glycoprotein 10 [3] = target: T2, BSA neo-glycoprotein 10 (Bos taurus, UniProt P02769); assay: ELISA
BSA neo-glycoprotein 10 [4] = target: T2, BSA neo-glycoprotein 10; assay: competitive ELISA
BSA neo-glycoprotein 11 = BSA neo-glycoprotein 11 (Bos taurus, UniProt P02769); assay: competitive ELISA
BSA neo-glycoprotein 12 = BSA neo-glycoprotein 12 (Bos taurus, UniProt P02769); assay: competitive ELISA
Chain of BSA neo-glycoprotein 12 (P02769 25-607): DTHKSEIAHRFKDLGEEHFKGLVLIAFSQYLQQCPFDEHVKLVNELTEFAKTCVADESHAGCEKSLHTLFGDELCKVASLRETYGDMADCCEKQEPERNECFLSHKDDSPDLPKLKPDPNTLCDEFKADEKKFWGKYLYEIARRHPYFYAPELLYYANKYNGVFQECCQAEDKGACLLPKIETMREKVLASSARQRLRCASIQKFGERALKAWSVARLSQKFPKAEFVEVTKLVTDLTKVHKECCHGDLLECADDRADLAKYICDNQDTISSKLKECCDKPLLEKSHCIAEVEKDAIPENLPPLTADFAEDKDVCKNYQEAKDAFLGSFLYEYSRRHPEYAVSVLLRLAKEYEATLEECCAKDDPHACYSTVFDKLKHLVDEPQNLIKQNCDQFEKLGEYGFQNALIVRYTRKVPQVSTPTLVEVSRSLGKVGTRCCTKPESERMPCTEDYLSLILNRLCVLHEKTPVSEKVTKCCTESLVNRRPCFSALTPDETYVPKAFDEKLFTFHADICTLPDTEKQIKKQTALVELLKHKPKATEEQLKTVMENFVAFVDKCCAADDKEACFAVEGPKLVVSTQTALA

T1 sequence (P02769 25-607): as above
T2 sequence (P02769 25-607): as above
Chain of BSA neo-glycoprotein 11 (P02769 25-607): as above

B1: Galectin-3 (protein)
chain: not shown
modifications: BSA conjugated with LacdiNAc (glycan 1)
B1 was tested, and the Kd (BSA neo-glycoprotein 9 [1]) was 6290 nM and the IC50 (BSA neo-glycoprotein 9 [2]) was 2030 nM.

B2: Galectin-3 (protein)
chain: not shown
modifications: BSA conjugated with LacNAc (glycan 2)
Binder B2 has a Kd (BSA neo-glycoprotein 10 [3]) of 4780 nM and an IC50 (BSA neo-glycoprotein 10 [4]) of 344 nM.

B3: Galectin-3 (protein)
chain: not shown
modifications: BSA conjugated with LacdiNAc-LacNAc (glycan 3)
B3 showed an IC50 (BSA neo-glycoprotein 11) of 11 nM.

B4: Galectin-3 (protein)
chain: not shown
modifications: BSA conjugated with LacNAc-LacNAc (glycan 4)
B4 showed an IC50 (BSA neo-glycoprotein 12) of 31 nM.
